Experimental data published in paper PMC12040169 (PLOS Biology, 2025).
Some of the results follow.

Test system: T1, C. trachomatis L2/434/Bu expressing GFP (CTL2-GFP)
T1 construct: L2/434/Bu GFP intracellular growth in HeLa cells
Parameters: species or system HeLa; C. trachomatis total inclusion area by high-content imaging, normalised to DMSO
Details: total inclusion area; 28.5 h, 10 µM; inhibitor
Summary of the method: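 After bulk GFP and resorufin fluorescence reads, cells were fixed, stained with Hoechst and imaged by high-content microscopy. Inclusion area and number (GFP) stood in for chlamydial growth, nuclei count (Hoechst) for host cell viability. MICs were derived as for the bulk readout.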

How did the “% of control remaining” value turn out when N=c1sc(Cc2cc(Cl)ccc2Cl)cn1CC(=O)c1ccccc1 [CBK263584B] was run?
Its value is 97.8723.

How did the “% of control remaining” value turn out when Nc1cccc(-c2cncc(Nc3ccccc3)n2)c1 [CBK065265] was run?
The value was 147.498.

How did the “% of control remaining” value turn out when COc1ccccc1Oc1ccc(C(F)(F)F)cc1[N+](=O)[O-] [CBK002845] was run?
The value was 85.6341.

For CCC(CC)Cn1c(-c2cccnc2)nc2cc(S(=O)(=O)NCCO)ccc21 [CBK003450], which “% of control remaining” value is on record?
Its value is 101.697.

For COc1ccccc1Nc1nc(N)nc(CSc2nc3ccccc3s2)n1 [CBK266747], which “% of control remaining” value is on record?
Its value is 105.769.

With O=C(c1ccco1)N1CCN(S(=O)(=O)c2ccc(Cl)cc2)CC1 [CBK068411] as the molecule, how does the “% of control remaining” value read?
Its value is 98.9406.

For O=C(Nc1ccc(-c2ccoc2)cc1C(=O)O)OCc1ccc([N+](=O)[O-])cc1 [CBK000141D], which “% of control remaining” value is on record?
Its value is 92.3873.

How did the “% of control remaining” value turn out when CC(=O)N(C)c1ncc(Br)cc1C(=O)N(C)C [CBK076533] was run?
The value was 117.592.

For Cc1nccn1CCC(=O)NCCc1ccc(N(C)C)cc1 [CBK281954], which “% of control remaining” value is on record?
The value was 107.345.

COCCn1ccnc1C1CCN(C(=O)COc2cccc(F)c2)CC1 [CBK307362] was tested. Which “% of control remaining” value did it give?
Its value is 79.2884.

For O=C(O)c1ccc(-c2n[nH]c(=O)c3c2CCCC3)cc1 [CBK287868], which “% of control remaining” value is on record?
Its value is 106.08.

With Cc1nnc2n1-c1ccccc1SC(c1ccccc1)C2 (stereo not drawn) [CBK016040] as the molecule, how does the “% of control remaining” value read?
Its value is 105.127.

CC(C)(C)c1cc(CN2CCN(c3ccccn3)CC2)cc(C(C)(C)C)c1O [CBK261520] was tested. Which “% of control remaining” value did it give?
The value was 77.17.

With CCN1C(=O)/C(=C\NN=C2CCCC2)c2ccc(C3=NNC(=O)CC3)cc21 [CBK263515] as the molecule, how does the “% of control remaining” value read?
Its value is 118.767.

How did the “% of control remaining” value turn out when CCCS(=O)(=O)NC1CC(C)(C)Cc2c1cnn2-c1ccc(OC)cc1 (stereo not drawn) [CBK306730] was run?
Its value is 95.9097.

How did the “% of control remaining” value turn out when COc1ccc(-c2nc(=S)c3c(n2CCCO)CCCC3)cc1 [CBK027898] was run?
Its value is 127.525.

For Cc1ccc(S(=O)(=O)N2CCN(CCC(=O)O)CC2)cc1C [CBK269416], which “% of control remaining” value is on record?
Its value is 86.1355.

How did the “% of control remaining” value turn out when O=C(c1ccoc1)N1CCC2(CCCN(Cc3c(F)cccc3F)C2)C1 (stereo not drawn) [CBK132806] was run?
The value was 75.0983.

Cc1cc(N2CCN(C(=O)CCc3ccco3)CC2)nc(C(C)C)n1 [CBK305367] was tested. Which “% of control remaining” value did it give?
Its value is 113.96.

How did the “% of control remaining” value turn out when CC(NC(=O)n1ccc2c(N3CCNCC3)cccc21)c1ccccc1 (stereo not drawn) [CBK003729C] was run?
The value was 84.1676.

How did the “% of control remaining” value turn out when Cc1ccc(-n2nnc3c(SCC(=O)Nc4ccc(F)cc4)ncnc32)cc1 [CBK287542] was run?
The value was 63.0656.

For O=C(O)c1cc(S(=O)(=O)NC(CO)C(O)c2ccc([N+](=O)[O-])cc2)ccc1Br (stereo not drawn) [CBK262515], which “% of control remaining” value is on record?
The value was 103.197.

With CCCCN(CCCC)c1nccnc1Cl [CBK001576] as the molecule, how does the “% of control remaining” value read?
Its value is 89.8183.

How did the “% of control remaining” value turn out when Cc1cc2c(cc3c(=O)n(CC(=O)NC4CCC4)nc(C)n32)s1 [CBK284118] was run?
Its value is 67.2683.

With CC(=O)Nc1ccc(NC(=O)/C=C/c2ccc(Cl)cc2)cc1 [CBK264766] as the molecule, how does the “% of control remaining” value read?
Its value is 95.0691.

With Cc1cccn2c(CN3CC(O)C3)c(C(=O)N3CCCCC3)nc12 [CBK306662] as the molecule, how does the “% of control remaining” value read?
The value was 58.5053.

How did the “% of control remaining” value turn out when O=C(CCc1nc2ccccc2c(=O)[nH]1)N1CCN(Cc2ccc(Cl)s2)CC1 [CBK296937] was run?
Its value is 72.8333.

How did the “% of control remaining” value turn out when Cc1c(C(=O)N(C)Cc2csc3ccccc23)nnn1C1CCNCC1 [CBK304103] was run?
The value was 17.8552.

With CCC(C)NC(=O)CSc1nnc(-c2cccs2)n1CC (stereo not drawn) [CBK296960] as the molecule, how does the “% of control remaining” value read?
The value was 86.0314.

How did the “% of control remaining” value turn out when CN(C)C1=NC(N(C)C)=NP(N(C)C)(N(C)C)=N1 [CBK261057] was run?
Its value is 96.0295.

CCC1CCCCN1C(=O)c1ccc(C(F)(F)F)cc1 (stereo not drawn) [CBK081165] was tested. Which “% of control remaining” value did it give?
The value was 55.7087.

Which “% of control remaining” value does the source give for O=C(Nc1ccc2oc(-c3cccnc3)nc2c1)c1ccc(N2CCOCC2)c([N+](=O)[O-])c1 [CBK268664] here?
Its value is 94.1063.

Cc1ccc(CC(=O)N2CCC(Cc3ccccc3-c3ccccc3C)(C(N)=O)CC2)cc1 [CBK285727] was tested. Which “% of control remaining” value did it give?
The value was 94.4043.

With CC(C)c1ccc(C(C)NC(=O)Cn2cccc(C(=O)NC3CCCCC3)c2=O)cc1 (stereo not drawn) [CBK286044] as the molecule, how does the “% of control remaining” value read?
The value was 114.302.

Which “% of control remaining” value does the source give for Cc1c(-c2cccc(NC(=O)c3ccccc3)c2)nc2ncccn12 [CBK287504] here?
The value was 106.234.

How did the “% of control remaining” value turn out when COc1ccc(C(C)C)cc1-c1nc(N)cc2cccnc12 [CBK081178] was run?
Its value is 84.8222.

Which “% of control remaining” value does the source give for Cc1cccc(-n2ncc3c(NCCCN4CCOCC4)ncnc32)c1 [CBK265710] here?
Its value is 129.415.

Which “% of control remaining” value does the source give for COc1cc(OC)nc(CN2C(=O)CC3(C2=O)C(=O)N(CCCN(C)C(=O)c2ccco2)c2ccc(F)cc23)n1 (stereo not drawn) [CBK076006] here?
The value was 94.3732.

COc1ccc(-c2ccc(=O)n3c2[C@@H]2C[C@@H](CN(C(=O)NC4CCCCC4)C2)C3)cc1 [CBK289189] was tested. Which “% of control remaining” value did it give?
The value was 106.81.

For O=C(O)CC1SC(Nc2ccc(F)cc2F)=NC1=O (stereo not drawn) [CBK200115], which “% of control remaining” value is on record?
The value was 86.1719.

COc1ccc(N2CC(C(=O)N(C)CC(F)(F)F)CC2=O)cc1 (stereo not drawn) [CBK281510] was tested. Which “% of control remaining” value did it give?
Its value is 100.217.

How did the “% of control remaining” value turn out when CC1CCN(Cc2ccc(-c3nnn(CC(=O)NCc4ccc(Cl)cc4Cl)n3)cc2)CC1 [CBK144180C] was run?
Its value is 76.4231.

Which “% of control remaining” value does the source give for Cc1cc(-c2ccc(=O)n(C3CCN(C(=O)C4CC4)CC3)n2)c(C)o1 [CBK284462] here?
Its value is 110.954.

How did the “% of control remaining” value turn out when c1coc(-c2cn3ccnc3c(Nc3ccc4[nH]ccc4c3)n2)c1 [CBK037361] was run?
The value was 109.24.

How did the “% of control remaining” value turn out when O=C(Nc1ccc2n(c1=O)C[C@H]1C[C@@H]2CN(C(=O)NC2CCCCC2)C1)c1cnccn1 [CBK289076] was run?
The value was 72.051.

Which “% of control remaining” value does the source give for CCCc1c(C)nc2c(OC)cccc2c1SCCC(=O)O [CBK263890] here?
Its value is 92.1567.

O=S(=O)(c1ccc(Cl)cc1)N1CCN(c2ccccc2)CC1 [CBK067987] was tested. Which “% of control remaining” value did it give?
The value was 95.2033.

How did the “% of control remaining” value turn out when N#Cc1ccc(COc2ccccc2)cc1 [CBK002738] was run?
The value was 93.6215.

Cc1nn(C)c2ncc(S(=O)(=O)NC(C)c3ccc(F)cc3)cc12 (stereo not drawn) [CBK305793] was tested. Which “% of control remaining” value did it give?
The value was 102.146.

CC(C)(C)c1ccc(-c2cnc3nc(N)ccc3c2)cc1 [CBK061888] was tested. Which “% of control remaining” value did it give?
Its value is 90.5378.

For O=C(O)C(c1c[nH]c2ccc(OCc3ccccc3)cc12)N1CCCC1 (stereo not drawn) [CBK286686], which “% of control remaining” value is on record?
Its value is 62.2891.
